Our source for the binding signal (RPM ratio (pull-down/input)) values is PMC12820563.

Some of the results follow. The list includes weakly bound sequences.

For this assay, the target named is T1, MBP-FoxP3dN (UniProt Q99JB6).
T1 sequence: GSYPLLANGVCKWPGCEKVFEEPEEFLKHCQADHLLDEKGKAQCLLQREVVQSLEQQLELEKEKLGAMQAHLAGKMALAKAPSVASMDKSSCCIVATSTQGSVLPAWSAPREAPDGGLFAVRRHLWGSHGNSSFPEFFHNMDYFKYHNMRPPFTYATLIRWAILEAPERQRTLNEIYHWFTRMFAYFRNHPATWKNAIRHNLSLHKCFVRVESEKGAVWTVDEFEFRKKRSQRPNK
Description: PD-seq (MBP pull-down with sequencing). The conditions noted are these: 20 mM Tris-HCl pH 7.5, 100 mM NaCl, 1.5 mM MgCl2, 0.4 uM protein, 0.1 uM dsDNA library, 30 min, room temperature, amylose pull-down; high values mean tight binding; double strand, one strand shown.
In the case of “GATGATTGTTCTCCCAGCTGATGAATTTGCGGCGTCGAGTAAACAAATTTTCCTAATCTTTCTGTTCAAGCGCCATCTAC”, the binding signal (RPM ratio (pull-down/input)) came to 1.05.
Regarding “GATGATTGTTCTCCCAGCTGATGAATTAACATATTCGAGTAAACAAATTTTCCTAATCTTTCTGTTCAAGCGCCATCTAC”, the binding signal (RPM ratio (pull-down/input)) amounted to 0.57.
Regarding “GATGATTGTTCTCCCAGCTGATGAATTTGCTCAGTCGAGTAAACAAATTTTCCTAATCTTTCTGTTCAAGCGCCATCTAC”, the binding signal (RPM ratio (pull-down/input)) was found to be 0.341.
The figure for “GATGATTGTTCTCCCAGCTGATGAATTTACAAATTCGAGTAAACAAATTTTCCTAATCTTTCTGTTCAAGCGCCATCTAC” is 0.476; for “GATGATTGTTCTCCCAGCTGATGAATTCGGGACTTCGAGTAAACAAATTTTCCTAATCTTTCTGTTCAAGCGCCATCTAC” it is 0.391.
The figure for “GATGATTGTTCTCCCAGCTGATGAATTGACATTCTCGAGTAAACAAATTTTCCTAATCTTTCTGTTCAAGCGCCATCTAC” is 0.556; for “GATGATTGTTCTCCCAGCTGATGAATTATGATCCTCGAGTAAACAAATTTTCCTAATCTTTCTGTTCAAGCGCCATCTAC” it is 0.648; for “GATGATTGTTCTCCCAGCTGATGAATTCCCAGCCTCGAGTAAACAAATTTTCCTAATCTTTCTGTTCAAGCGCCATCTAC” it is 0.301.
“GATGATTGTTCTCCCAGCTGATGAATTACTACGGTCGAGTAAACAAATTTTCCTAATCTTTCTGTTCAAGCGCCATCTAC”: the binding signal (RPM ratio (pull-down/input)) was determined as 0.315.
Turning to “GATGATTGTTCTCCCAGCTGATGAATTAGGAGGGTCGAGTAAACAAATTTTCCTAATCTTTCTGTTCAAGCGCCATCTAC”, the binding signal (RPM ratio (pull-down/input)) was 0.318.
To “GATGATTGTTCTCCCAGCTGATGAATTCGCAGTTTCGAGTAAACAAATTTTCCTAATCTTTCTGTTCAAGCGCCATCTAC” belongs 0.526.
In the case of “GATGATTGTTCTCCCAGCTGATGAATTAGGCTATTCGAGTAAACAAATTTTCCTAATCTTTCTGTTCAAGCGCCATCTAC”, the binding signal (RPM ratio (pull-down/input)) was determined as 1.58.
To “GATGATTGTTCTCCCAGCTGATGAATTTCAATCTTCGAGTAAACAAATTTTCCTAATCTTTCTGTTCAAGCGCCATCTAC” belongs 0.352; to “GATGATTGTTCTCCCAGCTGATGAATTGGGATGATCGAGTAAACAAATTTTCCTAATCTTTCTGTTCAAGCGCCATCTAC”, 0.464; to “GATGATTGTTCTCCCAGCTGATGAATTGTGGCTATCGAGTAAACAAATTTTCCTAATCTTTCTGTTCAAGCGCCATCTAC”, 1.59.
Turning to “GATGATTGTTCTCCCAGCTGATGAATTCTGCCGCTCGAGTAAACAAATTTTCCTAATCTTTCTGTTCAAGCGCCATCTAC”, the binding signal (RPM ratio (pull-down/input)) turned out to be 2.24.
Turning to “GATGATTGTTCTCCCAGCTGATGAATTCCATCGATCGAGTAAACAAATTTTCCTAATCTTTCTGTTCAAGCGCCATCTAC”, the binding signal (RPM ratio (pull-down/input)) was determined as 0.359.
The figure for “GATGATTGTTCTCCCAGCTGATGAATTCCACATGTCGAGTAAACAAATTTTCCTAATCTTTCTGTTCAAGCGCCATCTAC” is 0.45.
As to “GATGATTGTTCTCCCAGCTGATGAATTTCCATATTCGAGTAAACAAATTTTCCTAATCTTTCTGTTCAAGCGCCATCTAC”, the binding signal (RPM ratio (pull-down/input)) was 0.34.
Turning to “GATGATTGTTCTCCCAGCTGATGAATTTCCACAATCGAGTAAACAAATTTTCCTAATCTTTCTGTTCAAGCGCCATCTAC”, the binding signal (RPM ratio (pull-down/input)) amounted to 0.373.
The figure for “GATGATTGTTCTCCCAGCTGATGAATTGCAGAACTCGAGTAAACAAATTTTCCTAATCTTTCTGTTCAAGCGCCATCTAC” is 0.475; for “GATGATTGTTCTCCCAGCTGATGAATTTAACAATTCGAGTAAACAAATTTTCCTAATCTTTCTGTTCAAGCGCCATCTAC” it is 0.437.
For “GATGATTGTTCTCCCAGCTGATGAATTGTCGCTATCGAGTAAACAAATTTTCCTAATCTTTCTGTTCAAGCGCCATCTAC”, the binding signal (RPM ratio (pull-down/input)) came out at 0.891.
To “GATGATTGTTCTCCCAGCTGATGAATTCGCGGTTTCGAGTAAACAAATTTTCCTAATCTTTCTGTTCAAGCGCCATCTAC” belongs 0.585; to “GATGATTGTTCTCCCAGCTGATGAATTGTACGCTTCGAGTAAACAAATTTTCCTAATCTTTCTGTTCAAGCGCCATCTAC”, 0.577.
The figure for “GATGATTGTTCTCCCAGCTGATGAATTGTCAGCCTCGAGTAAACAAATTTTCCTAATCTTTCTGTTCAAGCGCCATCTAC” is 0.553; for “GATGATTGTTCTCCCAGCTGATGAATTTCTGGGTTCGAGTAAACAAATTTTCCTAATCTTTCTGTTCAAGCGCCATCTAC” it is 0.245; for “GATGATTGTTCTCCCAGCTGATGAATTGTCTGGGTCGAGTAAACAAATTTTCCTAATCTTTCTGTTCAAGCGCCATCTAC” it is 0.263.
Regarding “GATGATTGTTCTCCCAGCTGATGAATTAGCCGGCTCGAGTAAACAAATTTTCCTAATCTTTCTGTTCAAGCGCCATCTAC”, the binding signal (RPM ratio (pull-down/input)) amounted to 0.203.
To “GATGATTGTTCTCCCAGCTGATGAATTTTGGTTCTCGAGTAAACAAATTTTCCTAATCTTTCTGTTCAAGCGCCATCTAC” belongs 0.966.
To “GATGATTGTTCTCCCAGCTGATGAATTCTGGTACTCGAGTAAACAAATTTTCCTAATCTTTCTGTTCAAGCGCCATCTAC” belongs 0.502.
